Measured values: PMC4336329 (PLoS ONE, 2015)
Screen size: about 310,000 compounds; about 14,000 (4.5%) showed an effect of 50% or more. Effects have a minus sign here. The list shows a part of the results.

The molecules below were run against human ether-à-go-go-related gene (hERG) potassium channel (human, UniProt Q12809) (assay: primary screen, population patch clamp on CHO cells stably expressing hERG).
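Also: peak tail current of the secondary pulse compared with the same well before compound.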

human ether-à-go-go-related gene (hERG) potassium channel, sequence (Q12809 whole entry, looked up): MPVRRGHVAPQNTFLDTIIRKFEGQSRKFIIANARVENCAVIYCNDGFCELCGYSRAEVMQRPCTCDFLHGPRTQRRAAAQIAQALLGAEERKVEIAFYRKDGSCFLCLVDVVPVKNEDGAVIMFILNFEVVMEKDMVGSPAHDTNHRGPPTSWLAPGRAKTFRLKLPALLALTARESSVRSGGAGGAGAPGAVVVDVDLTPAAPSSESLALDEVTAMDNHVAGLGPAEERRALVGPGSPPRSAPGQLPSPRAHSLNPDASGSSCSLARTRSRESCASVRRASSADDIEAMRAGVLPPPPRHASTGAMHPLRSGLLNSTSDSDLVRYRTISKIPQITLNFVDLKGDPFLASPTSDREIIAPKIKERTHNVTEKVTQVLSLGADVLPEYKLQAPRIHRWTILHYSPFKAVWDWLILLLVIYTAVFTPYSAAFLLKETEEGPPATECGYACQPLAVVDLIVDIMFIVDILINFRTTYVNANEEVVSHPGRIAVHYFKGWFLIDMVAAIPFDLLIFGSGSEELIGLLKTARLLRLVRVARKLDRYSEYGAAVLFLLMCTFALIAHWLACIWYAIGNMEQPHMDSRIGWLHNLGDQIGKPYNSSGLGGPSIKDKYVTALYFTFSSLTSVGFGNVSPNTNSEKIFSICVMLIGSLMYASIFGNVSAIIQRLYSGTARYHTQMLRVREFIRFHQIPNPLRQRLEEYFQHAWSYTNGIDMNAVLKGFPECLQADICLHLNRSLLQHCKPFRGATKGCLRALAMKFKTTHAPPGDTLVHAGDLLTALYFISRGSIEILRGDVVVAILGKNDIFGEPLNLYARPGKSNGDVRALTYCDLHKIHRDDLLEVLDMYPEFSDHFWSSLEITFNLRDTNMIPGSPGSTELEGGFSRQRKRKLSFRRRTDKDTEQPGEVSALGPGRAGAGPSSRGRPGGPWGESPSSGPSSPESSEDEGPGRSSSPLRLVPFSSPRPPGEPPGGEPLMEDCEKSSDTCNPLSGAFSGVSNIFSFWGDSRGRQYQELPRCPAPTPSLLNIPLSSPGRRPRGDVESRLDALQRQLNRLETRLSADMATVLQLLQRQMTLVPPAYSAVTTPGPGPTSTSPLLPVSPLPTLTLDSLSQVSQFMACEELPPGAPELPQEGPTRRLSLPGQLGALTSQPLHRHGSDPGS

| SMILES | hERG current change (%, negative = inhibition) at 10uM [%] |
| --- | --- |
| COc1ccc(N2CCN(C(=O)COc3ccc4c(C)cc(=O)oc4c3C)CC2)cc1 | 20.6 |
| COc1ccc(C(CNC(=O)c2oc3ccccc3c2C)N2CCCC2)cc1 (centres unmarked) | -43.8 |
| COc1cccc(NCc2cc3c(C(C)(C)C)nn(-c4ccccc4)c3[nH]c2=O)c1 | 4.57 |
| Cc1ccc2c(c1)c1c(n2CC(O)Cn2nc(C)c(Br)c2C)C(=O)CCC1 (centres unmarked) | 18.6 |
| COc1ccc(OC)c(S(=O)(=O)NCC(c2cccs2)N2CCc3ccccc3C2)c1 (centres unmarked) | -16.9 |
| COc1ccc(C(=O)O/N=C(\N)c2ccccc2Cl)cc1OC | -0.412 |
| COc1ccc(/C=C(\C#N)C(=O)OCC(=O)N(C)C2CCS(=O)(=O)C2)cc1 (centres unmarked) | -17 |
| O=C(O)CCCN1C(=O)/C(=C\c2ccccc2OCc2ccccc2)SC1=S | 9.19 |
| CCOc1ccc(NC(=O)Nc2ccc(Cc3ccncc3)cc2)cc1 | 1.1 |
| COc1ccccc1N1CCN(C(=O)CN(C2CCCCC2)S(C)(=O)=O)CC1 | -1.8 |
| CCN(CC)CCCNc1ncnc2ccccc12.Cl | -13.1 |
| Cc1ccc(CC(=O)Nc2cc([N+](=O)[O-])ccc2F)cc1 | 16.1 |
| O=C(NC(=S)NCCC1=CCCCC1)c1cccnc1 | -2.49 |
| Cc1ccc[n+](C(C)C(=O)Nc2ccc([N+](=O)[O-])cc2C)c1.[Br-] (centres unmarked) | 16.7 |
| CCOc1ccc(NC(=O)[C@@H](NC(=O)OCc2ccccc2)[C@@H](C)CC)cc1 | 13.1 |
| COc1ccc(OC)c(C2=NS(=O)(=O)N(C)C(C(=O)Nc3ccc(F)cc3F)=C2)c1 | 13 |
| O=C(ON=C1CCSCC1)c1ccccc1 | 2.28 |
| Cc1cccc(C(=O)N/N=C/c2ccoc2)c1 | 13.3 |
| COCc1cc(C)nc(OCC(=O)N/N=C/c2ccc(OC)c(O)c2)c1C#N | -11.2 |
| O=C(NCCCn1ccnc1)c1ccc(COc2ccccc2)o1 | -25.7 |

| SMILES | hERG current change (%, negative = inhibition) at 10uM [%] |
| --- | --- |
| O=C(CSc1nc(O)c(C2CCCCC2)c(=O)[nH]1)NCC1CCCO1 (centres unmarked) | -7.2 |
| O=C(/C=C/c1ccco1)c1cccnc1 | 6.42 |
| Cc1ccc(NC(=O)CCOc2ccccc2)cc1 | 2.02 |
| COc1ccc(Cc2nc(-c3ccc(Cl)cc3)no2)cc1 | 7.36 |
| Cc1nc(SCc2c(F)cccc2Cl)n[nH]1 | -8.42 |
| O=C(CCn1nnc2ccccc21)Nc1nnc(Cc2ccc(F)cc2)s1 | -3.64 |
| CCCCCCCC(=O)N/N=C/c1ccc(Br)cc1 | 11.8 |
| CNC(=O)CSc1nc2c([nH]c3ccccc32)c(=O)n1CCOC | -9.32 |
| O=C(Cn1cnc2c(nnn2-c2ccc(F)cc2)c1=O)N1CCCC1 | -1.53 |
| CCC(c1nc2ccccc2c(=O)n1-c1nc2ccccc2s1)N1C(=O)c2ccccc2C1=O (centres unmarked) | 11.8 |
| CCOC(=O)C(O)(c1ccc(NC(=O)NC2CCCCC2)cc1)C(F)(F)F (centres unmarked) | 1.15 |
| Cc1ccc(C(=O)N2CCN(S(=O)(=O)c3ccc(C(C)C)cc3)CC2)s1 | -36.6 |
| Cc1nn(Cc2ccc(F)cc2)c2sc(C(=O)Nc3ccccc3N3CCOCC3)cc12 | 6.49 |
| CC(C)(C)c1n[nH]c(=S)n(N)c1=O | 6.84 |
| Cc1ccsc1/C=N/NC(=S)NCc1ccccc1 | 11.8 |
| Cc1cc(S(=O)(=O)N2CCOCC2)ccc1OCC(=O)Nc1ccc(F)cc1 | -18.9 |
| Cc1ccc(C(=O)NCCNC(=O)CN2CCOCC2)cc1 | 13.3 |
| COc1cc(Nc2nnc(C)s2)c(Cl)cc1Cl | 3.92 |
| CCn1c(CCn2ccnc2C)n[nH]c1=S | -1.48 |
| CS(=O)(=O)c1ccc(NC(=O)c2ccccc2-n2cnnn2)cc1 | 4.9 |

| SMILES | hERG current change (%, negative = inhibition) at 10uM [%] |
| --- | --- |
| CCCOc1ccc(/C=N/Nc2cccc([N+](=O)[O-])c2)c(O)c1 | 7.96 |
| CN(CC(=O)Nc1ccccc1C(F)(F)F)C(=O)c1ccccc1Sc1ccccc1C#N | -9.93 |
| C[N+]1(C)C2CCC1CC(OC(=O)c1c[nH]c3ccccc13)C2.[I-] (centres unmarked) | 10.2 |
| COc1ccc(NC2CCCN(C(=O)CCc3cccc(Cl)c3)C2)cc1 (centres unmarked) | -40.1 |
| O=C(O)c1cccc2c1/C(=N/O)c1ccccc1-2 | 16.6 |
| CC1=CC2=C(OC1N(C)C)c1cccc3cccc(c13)C2=O (centres unmarked) | -6.65 |
| CC(C)c1ccc(NC(=O)N2CCCC2C(=O)Nc2ccc(-n3cnnn3)cc2)cc1 (centres unmarked) | -61.8 |
| CCc1ccc(/C=C2\SC(=S)N(CCCC(=O)Nc3ccccn3)C2=O)cc1 | 12.7 |
| COc1ccccc1NC=C1C(=O)OC2(CCCCC2)OC1=O | -7.24 |
| CC(C)c1nc(SCC(=O)NC2CCCC2)c2ccccc2n1 | -5.67 |
| O=C(CNC(=S)N(CCCN1CCOCC1)Cc1cccs1)N1CCCCCC1 | -41.4 |
| Cc1ccc2oc(C(=O)NCc3ncc(C)[nH]3)c(C)c2c1 | -3.93 |
| O=C(c1ccc(-c2ccccc2)c(F)c1)C1CCCN(C(=O)c2cncs2)C1 (centres unmarked) | -18.4 |
| Cc1cc(NC(=O)Nc2cccc(Cl)c2)n(-c2ccccn2)n1 | 23.7 |
| c1ccc(SSc2ccccc2)cc1 | 16.7 |
| Cc1cc(C(=O)NNc2ccccc2F)no1 | 14.5 |
| O=C(CN1C(=O)C2CC=CCC2C1=O)NCC(=O)Nc1ccc(F)c(F)c1 (centres unmarked) | 3.28 |
| COc1ccc(S(=O)(=O)N2CCCC(C(=O)NC3CCCCC3)C2)cc1 (centres unmarked) | 7.18 |
| CN1CCN(C2=Cc3cc(Cl)ccc3Sc3cc(F)ccc32)CC1.CS(=O)(=O)O | 0.951 |
